Here are results for 22 molecules from publication PMC12136788.

The other results are listed elsewhere or left out.

The labels stand for the following.
T1: UNK ZnF1-3 (human, UniProt Q9C0B0 31-174)
T1 sequence: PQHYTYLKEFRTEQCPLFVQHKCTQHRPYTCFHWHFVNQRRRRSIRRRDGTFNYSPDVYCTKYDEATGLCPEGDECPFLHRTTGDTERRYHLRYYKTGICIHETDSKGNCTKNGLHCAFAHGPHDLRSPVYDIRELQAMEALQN

B1: chr2:5814250:5814251:-_ENSMUSG00000025816_ENSMUST00000102981|mus_hu|mus_mus_mus_hu_True|38_108 (ssRNA)
RNA: GGGAGUUCUACAGUCCGACGAUCUUCCUUUCAGGCUUCUGAAUUUCUGGUAGAACUGCACAGAAUGGUUUGAUAACUUCUAAAAAUUUGAUGCCCAUGGCGGCGGCUGGGGAGGCCCAGGGGGAAACCGCGGCCUCGGCGCUGCAACAGAGGAUUGAGCAUCA
B2: chr12:16048344:16048345:+_ENSG00000023734_ENST00000419869|hu_hu|hu_hu_hu_mus_True|8_68 (ssRNA)
RNA: GGGAGUUCUACAGUCCGACGAUCAGAUCGUCCAUAAGUAAUAACCAAAAUCUCUCCUUCAGGAAUAUAUUCCAUACUGCUAACAGACAUAUUAAAAUUCAGAGAUUUCACUUCUGUCAUUGUGGCAUGAUCCCAAAGCCGAACCAACAGAGGAUUGAGCAUCA
B3: 64422554_64422674_5156_CDS_ENSG00000118482_ENST00000393387|human|control|control (ssRNA)
RNA: GGGAGUUCUACAGUCCGACGAUCAGUCUGUAUGUUUUCUACUGAUGGUGAGUUUUGUGCAACUUUUAAAUUGUCACUCUGCUGAACACACGAGUUUUUCUCUGCAGAACACAACUUUUCCUCUACAUUGAUUUGUUCUGUUAACAACAGAGGAUUGAGCAUCA
B4: chr1:39494447:39494448:+_ENSG00000168653_ENST00000372967|hu_mus|hu_hu_hu_mus_False|8_78 (ssRNA)
RNA: GGGAGUUCUACAGUCCGACGAUCGCACCGAGCGGCGUUCUUAUAGGGCUGUUCUGCACUCUGGAUUAUAAAGUGCCGGUCCAGGCUGAUGCCCAGCUUUUUCUGUAUGUCAAGGAAAGGCAUGGCUGAUGCUCGUGCUUGUCACAACAGAGGAUUGAGCAUCA
B5: chrX:140365796:140365797:-_ENSMUSG00000031285_ENSMUST00000033642|mus_mus|mus_mus_mus_hu_False|48_98 (ssRNA)
RNA: GGGAGUUCUACAGUCCGACGAUCCUUCUCAUUACUCAAUGCCUGCAAGGUUCUGGUUCGGUAGAAGCUACAGUGGGCGCUGUGAGUGGGACUUGGAAACCCAUUCAUCCGGGAGCCUCGCAUGUUCCUGGAUGUCUUAUCUCUCAACAGAGGAUUGAGCAUCA
B6: chr5:40767622:40767623:-_ENSG00000132356_ENST00000397128|hu_mus|hu_hu_hu_mus_False|28_28 (ssRNA)
RNA: GGGAGUUCUACAGUCCGACGAUCAUCUUUUAUUGCGGCCCUCUUCAUGGGAUCCACCUGCAGCAUAUGUUUCAAAAGGCUGAUUACUGAAGGGUUUAAGUACUGAGGGGUAUAGAAGAUCCCAUCACAUAUCUUCUUAAAAAGCAACAGAGGAUUGAGCAUCA
B7: 127655415_127657517_144_CDS_ENSMUSG00000027379_ENSMUST00000028858|mouse|control|control (ssRNA)
RNA: GGGAGUUCUACAGUCCGACGAUCUUCCCAUUCUCCAAGUGGGUCAUUACCCGUGUAGCUUUGCAUAUGGGCUUCAAACAUGCGAAAGACAUUUUCUAGGUUGUCCAUGACGAGAAAAAACGCGCAGCGGCGAAAUACCCCACCCAACAGAGGAUUGAGCAUCA
B8: chr17:65740002:65740003:+_ENSG00000130935_ENST00000581375|hu_hu|hu_hu_hu_mus_False|28_98 (ssRNA)
RNA: GGGAGUUCUACAGUCCGACGAUCAACAAAUCUUUCUCUGGAUGAAGAACAGGAAGAUUCAUAUUAAAAAAAAUAUAUAUCCAUCAAGUUAGGUGUGGUGGCCACACAGAGCUCCAGAGCACUUUGGGAGGUGGAUCUCUGAGUCAACAGAGGAUUGAGCAUCA
B9: 110412523_110415850_1321_CDS_ENSG00000138802_ENST00000265175|human|control|control (ssRNA)
RNA: GGGAGUUCUACAGUCCGACGAUCAGCUGGAGCUGGAGCAGAAGCAGGAUCAGGUUCAGGGGCGGGAUCAGGAGCAGGACUGCUUGCUGAUGAAGAAAGCAUAUCUGGGUAACUGCCUCCUUCCAGGGCAUCAUAACUGUUGGGCAACAGAGGAUUGAGCAUCA
B10: chr7:149068622:149068623:-_ENSMUSG00000025139_ENSMUST00000001950|mus_hu|mus_mus_mus_hu_False|18_28 (ssRNA)
RNA: GGGAGUUCUACAGUCCGACGAUCGUGAGGCCUCUGAGUGUGGCUUGUGGUCUGUCCUGGGUUAGAGUUGUUAAUAUCACGGAACAUACCAUCUAGAACGUUCCAGUCUGCCUGACUCAUCCACCCUCCAAUGGAGAAGAAAUCCAACAGAGGAUUGAGCAUCA
B11: chr5:143539998:143539999:-_ENSG00000145817_ENST00000274496|hu_hu|FALSE|FALSE (ssRNA)
RNA: GGGAGUUCUACAGUCCGACGAUCUUUUCAAAAGACGGAAAUCAGGGCAAAGACUCCAUAUAACAAAGCGCAAGGAUAUGCUACUAAAAGUUGCUGUCCUUCCAUGGCUAAUGCAGAAAUAAAUAUUUUGGAAGCAGAAAAACUCAACAGAGGAUUGAGCAUCA
B12: 54630568_54630688_5623_3pUTR_ENSG00000094916_ENST00000209875|human|control|control (ssRNA)
RNA: GGGAGUUCUACAGUCCGACGAUCUUAAGGUAGAGACAAUUGCUCCCCGGGCCAAACACAGAUCCCUCCAACCCCUCACUGUACCUUAGGAAAGCUGGGGUAAACUACAGAUUCAACAAAAUCUCAAUAAGAAAAUCCCAAAAACAACAGAGGAUUGAGCAUCA
B13: chr3:39121231:39121232:+_ENSG00000114742_ENST00000302313|hu_hu|motif|central (ssRNA)
RNA: GGGAGUUCUACAGUCCGACGAUCAUUGGUAUCUUUGGUUAAUAUAUGUCUCUUAUCAUUAAGAAUGUGGCACUGAAUAAUACGGGCACCCCCUUUAAUAACCUGGUCAGGUUGUGUACAAAGAGGUGUUAUAGGAUUUGUACACAACAGAGGAUUGAGCAUCA
B14: chr6:108204272:108204273:-_ENSG00000025796_ENST00000369002|hu_mus|FALSE|FALSE (ssRNA)
RNA: GGGAGUUCUACAGUCCGACGAUCUUGCUCUCUAUCAGACUCCCUGUCACUACCAUCUUCUUUCUCACUCUGAGAAUCUCUAUUGGUUUCUUCCUCUUCAGAAUCACUGCCCUUGUCAGAAAUGUCGUCUUCUUCCUCCUUUAUCAACAGAGGAUUGAGCAUCA
B15: chr6:41757443:41757444:+_ENSG00000214736_ENST00000398881|hu_mus|hu_hu_hu_mus_False|1_48 (ssRNA)
RNA: GGGAGUUCUACAGUCCGACGAUCGAACCGUGCAGAGGCAACAUCUCAGCCGACACUGGGGGAUGGGGGGGCAGUGGGGGGGGGUUCAGGGAAGGGGAGGGAGUCAACUUCAGCUGCCACUCAGGUAGGAUCUUGUGGGGCACACAACAGAGGAUUGAGCAUCA
B16: 55646187_55646307_502_5pUTR_ENSG00000115355_ENST00000336838|human|control|control (ssRNA)
RNA: GGGAGUUCUACAGUCCGACGAUCGAAGGGGAGUAAAAAUUUCGUUCUCCAUUUUACAGAGUAUGUAUUUGAAAAAAGGAACUACCACAAAAAUACGCCUAGGGAAUUGGUCACUAAACGUGGAAGUAAGUAGAAAUCAAUGAACAACAGAGGAUUGAGCAUCA
B17: chr3:10015032:10015033:+_ENSMUSG00000027533_ENSMUST00000029046|mus_mus|mus_mus_mus_hu_True|48_108 (ssRNA)
RNA: GGGAGUUCUACAGUCCGACGAUCGUUGUUGCCAUCACAAGUGAUGAUACAAUCUGGCUUGGCCAUUGCGCCCAUUUUUCGCAAAGCCAGUCCUACUCCUAGCUCCUUCAUGUAUUCAUCAAAGCCUUUGCUGUCCACCAGGCGCAACAGAGGAUUGAGCAUCA
B18: 179075906_179076026_4327_3pUTR_ENSG00000143322_ENST00000408940|human|control|control (ssRNA)
RNA: GGGAGUUCUACAGUCCGACGAUCAGUAUGCAGGGGAACUGUAUCAGAACAGGAUUCAUUCCUUUGUGAGAACCUGUAGGGACUACUAUUUUCAAAAUCAACACUGGUUAAUGCUCUGAAUGCUACCAGGAAUAAAGGAAGACACAACAGAGGAUUGAGCAUCA
B19: 134020440_134020560_2516_3pUTR_ENSG00000166086_ENST00000529443|human|control|control (ssRNA)
RNA: GGGAGUUCUACAGUCCGACGAUCAUUAAACAAACUUAAAAAAAAAAAAUAGCAUUGGGGGCCCUAUUUUGUGAGCCAUCCAUAACCAAAAAGAGGUCUGUUACAGGAGCCCAAAGCUGGGACGCUACAUGGAAGACACCAGUGCAACAGAGGAUUGAGCAUCA
B20: 115631502_115631622_1917_3pUTR_ENSG00000148158_ENST00000374232|human|control|control (ssRNA)
RNA: GGGAGUUCUACAGUCCGACGAUCCACCAAUGCCUCCUAGGCCAAGACGAGUCAAUGCCCACAGAGGCCAAUUCCAGAGGGGCCAGGUUUCCACAGAAAGCAGCAGCUGCCUUCUGUUCCUGCCUCCUCCUCAUCCUUGAAAAGCAACAGAGGAUUGAGCAUCA
B21: chr2:119791414:119791415:+_ENSMUSG00000033943_ENSMUST00000110774|mus_mus|motif|central (ssRNA)
RNA: GGGAGUUCUACAGUCCGACGAUCUCCUACUUUACCAGAAAGCUUAGGUUUUUAAUUAUGACUGAAAGGGUAAGGGAAGAACGGUUCUGGAUAUGAAACAGUCUGCUGAAUGACAAAAUCCCUUCACUUUGGUAUUCCAUAAUACAACAGAGGAUUGAGCAUCA
B22: 215768714_215775229_1188_CDS_ENSG00000136636_ENST00000259154|human|control|control (ssRNA)
RNA: GGGAGUUCUACAGUCCGACGAUCUAUAGGAACAACAUCUUGAACCUGCCAGUGCUGAGUGACAGCAUUCCACACUCCCACUUUCCCUGUAUGACUCGUGGCCACCAACUGGUUACCAAUAAAGAAGAGAGCAUCUACAGGAACCAACAGAGGAUUGAGCAUCA

For this experiment, the target named is T1, UNK ZnF1-3. The experiment can be described thus: nsRBNS (natural sequence RNA bind-n-seq); RBNS binding buffer (assumed for nsRBNS): 25 mM Tris pH 7.5, 150 mM KCl, 3 mM MgCl2, 0.01% Triton X-100, 500 ug/ml BSA, 20 U/ml SUPERase-In, 4 C; UNK is unkempt and MSI1 is Musashi-1; names of the RNAs are library labels; protein concentration not given here; high values mean tight binding.
For the molecule B1, the binding signal was 1.22 enrichment R.

Molecule B2 returned a binding signal of 0.933 enrichment R.

With B3, the binding signal was 0.436 enrichment R.

B4 gave a binding signal of 0.84 enrichment R.

In turn, B5 showed a binding signal of 0.568 enrichment R.

For the molecule B6, the binding signal was 0.999 enrichment R.

Take B7: the binding signal worked out at 1.14 enrichment R.

As for B8, the binding signal turned out to be 2.75 enrichment R.

With B9, the binding signal was found to be 2.31 enrichment R.

For the molecule B10, the binding signal is 0.727 enrichment R.

On to B11, for which the binding signal stood at 1.15 enrichment R.

As for B12, the binding signal was 1.24 enrichment R.

As for B13, the binding signal was 0.711 enrichment R.

The molecule B14 had a binding signal of 0.424 enrichment R.

Molecule B15 registered a binding signal of 2.09 enrichment R.

The molecule B16 yielded a binding signal of 1.42 enrichment R.

Regarding B17, the binding signal stood at 0.619 enrichment R.

Consider B18, for which the binding signal worked out at 1.36 enrichment R.

The molecule B19 registered a binding signal of 3.05 enrichment R.

On to B20, for which the binding signal stood at 0.411 enrichment R.

The molecule B21 yielded a binding signal of 1.31 enrichment R.

B22 had a binding signal of 1.48 enrichment R.
